Where a name gives a salt, the structure may show the parent alone. ± gives the standard deviation of the averaged measurements. Over roughly 2,000 compounds, “cell viability relative to DMSO control (compound alone)” has its median near 0.98; the lowest 2% begin near 0.23. The list shows a part of the results.

The experiment has as its system PDC-DUC18828. As to the kind of experiment: cell viability relative to DMSO control (compound alone) (fraction); PDC-DUC18828 is a patient-derived cholangiocarcinoma cell line; higher = less growth inhibition. The note with it: 1 µM; 72 h. The procedure: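 Selleck Bioactive library screen in the patient-derived FGFR2-G3BP2 fusion-positive ICC cell line PDC-DUC18828 (500 cells/well). Each compound was tested at 1 uM alone, in triplicate, for 72 h. Viability was read by CellTiter-Glo and normalised to plate DMSO controls.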
The molecule `CN(C)C(=O)COC(=O)Cc1ccc(OC(=O)c2ccc(NC(=N)N)cc2)cc1` [Camostat Mesilate] gave a cell viability of 0.994 ± 0.03.
With `N=C(N)NC(=O)c1nc(Cl)c(N)nc1N` [Amiloride HCl], the cell viability is 1.02 ± 0.046.
`C[C@H](NC(=O)Cc1cc(F)cc(F)c1)C(=O)N[C@H](C(=O)OC(C)(C)C)c1ccccc1` returned a cell viability of 0.963 ± 0.034.
`CNC(CC(=O)O)C(=O)O` [NMDA (N-Methyl-D-aspartic acid)]: the cell viability came to 0.997 ± 0.05.
The molecule `CN1C2=CC(=O)/C(=N\NC(N)=O)C=C2CC1S(=O)(=O)O` (stereo not given) [Carbazochrome sodium sulfonate (AC-17)] registered a cell viability of 1.05 ± 0.073.
`Cc1cc(Nc2ccc(NC(=O)c3ccc(Nc4ccnc5ccccc45)cc3)cc2)nc(N)n1`: the cell viability came out at 1.04 ± 0.019.
Take `C[C@H](NC(=O)[C@@H](O)c1cc(F)cc(F)c1)C(=O)N[C@@H]1C(=O)N(C)c2ccccc2-c2ccccc21`: the cell viability was determined as 0.935 ± 0.017.
Consider `C[C@]12CC[C@@H]3c4ccc(O)cc4CC[C@H]3[C@@H]1CC[C@@H]2OC(=O)CCC1CCCC1` [Estradiol Cypionate], for which the cell viability came out at 1.01 ± 0.025.
Molecule `CC(C)N(CCCNC(=O)Nc1ccc(C(C)(C)C)cc1)C[C@H]1O[C@@H](n2ccc3c(N)ncnc32)[C@H](O)[C@@H]1O` registered a cell viability of 0.978 ± 0.048.
In the case of `CC(=O)Nc1ccc(NC(=S)NC(=O)c2ccc(C(C)(C)C)cc2)cc1` [Tenovin-1], the cell viability was 0.876 ± 0.015.
In turn, `CCOc1cc(C(=O)N2CCC(N3CCN(C)CC3)CC2)ccc1Nc1ncc2c(n1)N(C1CCCC1)c1ccccc1C(=O)N2C` displayed a cell viability of 0.959 ± 0.046.
Take `O=C(NOCCO)c1ccc2cncn2c1Nc1ccc(I)cc1F`: the cell viability was 0.579 ± 0.053.
`O=c1cc(-c2ccc(O)c(O)c2)oc2cc(O)cc(O)c12` [Luteolin] had a cell viability of 0.979 ± 0.091.
The result for `O=C(Cc1ccc(-c2ccc(OCCN3CCOCC3)cc2)cn1)NCc1ccccc1` reads 0.275 ± 0.019; that for `Nc1ncn([C@H]2C[C@H](O)[C@@H](CO)O2)c(=O)n1` [Decitabine], 0.901 ± 0.064.
As for `CC(C)/N=c1\cc2n(-c3ccc(Cl)cc3)c3ccccc3nc-2cc1Nc1ccc(Cl)cc1` [Clofazimine], the cell viability came out at 1 ± 0.039.
`O=C1Cc2cc(CCN3CCN(c4nsc5ccccc45)CC3)c(Cl)cc2N1` [Ziprasidone HCl] yielded a cell viability of 1.02 ± 0.056.
The result for `CC1CCc2c(N3CCC(O)CC3)c(F)cc3c(=O)c(C(=O)O)cn1c23` (stereo not given) [Nadifloxacin] reads 1.03 ± 0.078.
Consider `CCCN(CCc1cccs1)[C@H]1CCc2c(O)cccc2C1` [Rotigotine], for which the cell viability turned out to be 1.1 ± 0.018.
As for `Cc1cc(=O)n(-c2ccccc2)n1C` [Antipyrine], the cell viability is 0.976 ± 0.013.
`Clc1ccc(COC(Cn2ccnc2)c2ccc(Cl)cc2Cl)c(Cl)c1` (stereo not given) [Miconazole] yielded a cell viability of 1.01 ± 0.013.
The molecule `Clc1ccc(COC(Cn2ccnc2)c2ccc(Cl)cc2Cl)c(Cl)c1` (stereo not given) [Miconazole Nitrate] returned a cell viability of 0.959 ± 0.079.
As for `O=c1c2ccccc2oc2ccccc12` [Xanthone], the cell viability amounted to 1.03 ± 0.057.
As for `CC(C)(C)C[C@@H]1N[C@@H](C(=O)N[C@H]2CC[C@H](O)CC2)[C@H](c2cccc(Cl)c2F)[C@]12C(=O)Nc1cc(Cl)ccc12`, the cell viability stood at 0.859 ± 0.047.
For the molecule `CO[C@H]1O[C@@H]2O[C@@]3(C)CC[C@H]4[C@H](C)CC[C@@H]([C@H]1C)[C@@]24OO3` [Artemether], the cell viability worked out at 0.858 ± 0.027.
With `Cn1ncc(Cl)c1-c1cc(C(=O)N[C@H](CN)Cc2cccc(F)c2)sc1Cl`, the cell viability is 0.831 ± 0.022.
In turn, `NC12CC3CC(CC(C3)C1)C2` [Amantadine HCl] yielded a cell viability of 1 ± 0.097.
The result for `CN1CCN(C2=Nc3cc(Cl)ccc3Nc3ccccc32)CC1` [Clozapine] reads 1 ± 0.063.
As for `CO[C@@H](C(=O)N1Cc2[nH]nc(NC(=O)c3ccc(N4CCN(C)CC4)cc3)c2C1)c1ccccc1`, the cell viability was determined as 0.532 ± 0.011.
In turn, `Cc1c(Cc2ccc3ccccc3n2)c2cc(F)ccc2n1CC(=O)O` registered a cell viability of 0.933 ± 0.051.
The result for `C=CC(=O)N1CCC(Oc2cc3c(Nc4ccc(Cl)c(Cl)c4F)ncnc3cc2OC)CC1` [Poziotinib (HM781-36B)] reads 0.62 ± 0.041; that for `Brc1ccc([C@H]2CN3CCSC3=N2)cc1` [(-)-p-Bromotetramisole Oxalate], 1 ± 0.069.
In the case of `CC1(C)CCC(CN2CCN(c3ccc(C(=O)NS(=O)(=O)c4ccc(NCC5CCOCC5)c([N+](=O)[O-])c4)c(Oc4cnc5[nH]ccc5c4)c3)CC2)=C(c2ccc(Cl)cc2)C1`, the cell viability amounted to 0.976 ± 0.072.
`CCCCCCCCCCC[C@@H](C[C@@H]1OC(=O)[C@H]1CCCCCC)OC(=O)[C@H](CC(C)C)NC=O` [Orlistat] came in with a cell viability of 0.955 ± 0.034.
As for `CS(=O)(=O)c1cccc(CNc2nc(Nc3ccc4c(c3)CCC(=O)N4)ncc2C(F)(F)F)c1`, the cell viability was found to be 0.898 ± 0.02.
The molecule `Cc1ccc(NC(=O)c2ccc(CN3CC[C@H](N(C)C)C3)c(C(F)(F)F)c2)cc1Nc1nccc(-c2cncnc2)n1` [Bafetinib (INNO-406)] showed a cell viability of 0.949 ± 0.028.
Regarding `O=NO` [Sodium Nitrite], the cell viability is 0.985 ± 0.044.
Regarding `O=C(O)CCC(=O)Nc1ccc(Br)cn1` [Bikinin], the cell viability is 0.918 ± 0.019.
Consider `COc1ccc(C(=O)Nc2sc3c(c2C(N)=O)CCCC3)cc1OC`, for which the cell viability stood at 1.13 ± 0.022.
With `CC(=O)[C@@]1(O)CC[C@H]2[C@@H]3CCC4=CC(=O)CCC4=C3[C@@H](c3ccc(N(C)C)cc3)C[C@@]21C` [Ulipristal], the cell viability was 0.931 ± 0.01.
Consider `CC(C)(Oc1ccc(Cl)cc1)C(=O)O` [Clofibric Acid], for which the cell viability is 0.997 ± 0.057.
In turn, `COc1cc(Nc2ncc(F)c(Nc3ccc4c(n3)NC(=O)C(C)(C)O4)n2)cc(OC)c1OC` displayed a cell viability of 0.945 ± 0.04.
The result for `COc1cc(Nc2ncc(F)c(Nc3ccc4c(n3)NC(=O)C(C)(C)O4)n2)cc(OC)c1OC` [R406 (free base)] reads 0.916 ± 0.058.
As for `COc1cc2ncc(-c3ccccc3)nc2cc1OC` [Tyrphostin AG 1296], the cell viability was 1.14 ± 0.05.
Consider `CCC[C@H](Nc1nc(-c2ccc(NC(=O)NCC)c(OC)c2)ncc1C)c1cccnc1` [CYT997 (Lexibulin)], for which the cell viability stood at 0.291 ± 0.024.
The result for `CC(C)(Sc1cc(C(C)(C)C)c(O)c(C(C)(C)C)c1)Sc1cc(C(C)(C)C)c(O)c(C(C)(C)C)c1` [Probucol] reads 1.038 ± 0.0099; that for `C=CC(=O)Nc1cccc(Nc2nc(Nc3ccc(N4CCN(C(C)=O)CC4)cc3OC)ncc2C(F)(F)F)c1`, 0.932 ± 0.059; that for `CS(=O)(=O)CCNCc1ccc(-c2ccc3ncnc(Nc4ccc(OCc5cccc(F)c5)c(Cl)c4)c3c2)o1`, 0.975 ± 0.037.
Regarding `Cn1ccnc1S` [Methimazole], the cell viability was 1.01 ± 0.031.
In turn, `Nc1c(Br)cc(Br)cc1CN[C@H]1CC[C@H](O)CC1` [Ambroxol HCl] showed a cell viability of 0.925 ± 0.061.
`N#CC(c1ccc(Cl)cc1)c1c(Cl)cc(-n2ncc(=O)[nH]c2=O)cc1Cl` (stereo not given) [Diclazuril] registered a cell viability of 1.12 ± 0.028.
In turn, `COc1cc(OC)c(C(=O)CCCN2CCCC2)c(OC)c1` [Buflomedil HCl] had a cell viability of 0.996 ± 0.029.
The result for `COc1ccc(CCNCc2ccc(OCc3ccc(Cl)nc3)c(OC)c2)cc1OC` reads 0.946 ± 0.037; that for `CCOc1ccc(Cc2cc([C@@H]3O[C@H](SC)[C@@H](O)[C@H](O)[C@H]3O)ccc2Cl)cc1` [Sotagliflozin (LX4211)], 1.05 ± 0.061; that for `CC(C)(C)C(=O)OCOP(=O)(COCCn1cnc2c(N)ncnc21)OCOC(=O)C(C)(C)C` [Adefovir Dipivoxil], 0.695 ± 0.049.
Turning to `CN1CCC(=C2c3ccccc3CC(=O)c3sccc32)CC1` [Ketotifen Fumarate], the cell viability worked out at 0.972 ± 0.036.
`COc1ccccc1N1CCN(CC(O)COc2cccc3ccccc23)CC1` (stereo not given) [Naftopidil DiHCl]: the cell viability was found to be 0.959 ± 0.049.
`COc1ccccc1N1CCN(CC(O)COc2cccc3ccccc23)CC1` (stereo not given) [Naftopidil] had a cell viability of 0.989 ± 0.04.
The result for `Nc1nc(N)c2nc(-c3cccc(O)c3)cnc2n1` reads 0.791 ± 0.027; that for `C/C=C1\NC(=O)[C@H]2CSSCC/C=C/[C@H](CC(=O)N[C@H](C(C)C)C(=O)N2)OC(=O)[C@H](C(C)C)NC1=O` [Romidepsin (FK228, Depsipeptide)], 0.0573 ± 0.0029.
Turning to `O=C(O)CC[C@H]1CC[C@@](c2cc(F)ccc2F)(S(=O)(=O)c2ccc(Cl)cc2)CC1`, the cell viability is 1.08 ± 0.054.
`COc1ccc2[nH]c([S+]([O-])Cc3ncc(C)c(OC)c3C)nc2c1` (stereo not given) [Omeprazole] had a cell viability of 0.928 ± 0.022.
`COc1nc(-c2ccc3c(c2)OCO3)n(-c2ccc(NC(=O)CSc3ccccc3)cc2)n1` [SecinH3] displayed a cell viability of 0.89 ± 0.011.
`CCS(=O)(=O)Nc1ccc2c(c1)/C(=C(/Nc1ccc(CN3CCCCC3)cc1)c1ccccc1)C(=O)N2` [Hesperadin] came in with a cell viability of 0.258 ± 0.036.
`O=C(Nc1ccc(-c2ccnc(Nc3ccc(N4CCOCC4)cc3)n2)cc1)C1CCCN1` (stereo not given) came in with a cell viability of 0.987 ± 0.078.
The result for `Nc1cccc2c1CN(C1CCC(=O)NC1=O)C2=O` (stereo not given) [Lenalidomide (CC-5013)] reads 0.999 ± 0.023.
`NC(=S)N/N=C/c1ncccc1N` [Triapine] displayed a cell viability of 0.885 ± 0.057.
For the molecule `O=C(NS(=O)(=O)c1ccc(Br)s1)c1ccc(Cl)cc1Cl` [Tasisulam], the cell viability came out at 1.07 ± 0.043.
On to `C/C(=N\NC(=O)c1cccc(S(=O)(=O)N2CCOCC2)c1)c1cc(Cl)ccc1O`, for which the cell viability turned out to be 0.497 ± 0.046.
In turn, `COc1ccc(CNC(=O)Nc2ncc([N+](=O)[O-])s2)cc1` registered a cell viability of 0.975 ± 0.08.
As to `Cn1c2ccccc2c2c3c(c4c5ccccc5n(CCC#N)c4c21)CNC3=O`, the cell viability stood at 0.96 ± 0.039.
The molecule `OCCOCCN1CCN(C(c2ccccc2)c2ccc(Cl)cc2)CC1` (stereo not given) [Hydroxyzine 2HCl] returned a cell viability of 1.08 ± 0.057.
`Cc1ccccc1N1C(=O)c2cc(S(N)(=O)=O)c(Cl)cc2NC1C` (stereo not given) [Metolazone] registered a cell viability of 1.07 ± 0.052.
With `Cc1cc(-n2c(=O)[nH]c(=O)n(C)c2=O)ccc1Oc1ccc(SC(F)(F)F)cc1` [Toltrazuril], the cell viability was 0.957 ± 0.046.
In turn, `[I-].[K+]` [Potassium Iodide] came in with a cell viability of 1.04 ± 0.044.
In the case of `CC(=O)N1CCN(CCOc2ccc(C3CCN(C4=Nn5c(nnc5C(F)(F)F)CC4)CC3)cc2)CC1`, the cell viability came to 1.01 ± 0.026.
For `C=CC(=O)N1CCC[C@@H](n2nc(-c3ccc(Oc4ccccc4)cc3)c3c(N)ncnc32)C1`, the cell viability was determined as 0.989 ± 0.045.
As to `O=C(O)c1ccccc1C(=O)Nc1ccc(-c2ccccc2)cc1` [Kartogenin], the cell viability was found to be 0.9 ± 0.068.
The molecule `CC1=C(CC(=O)O)c2cc(F)ccc2/C1=C\c1ccc([S+](C)[O-])cc1` (stereo not given) [Sulindac] displayed a cell viability of 0.973 ± 0.063.
In turn, `C=CC(=O)Nc1ccc2ncnc(Nc3ccc(OCc4cccc(F)c4)c(Cl)c3)c2c1` yielded a cell viability of 0.804 ± 0.029.

Values taken from the supplement of paper PMC9588766.
